Twelve compounds from the supplement of paper PMC7266297 can be followed below.

In one assay the test system is KB-3-1. The assay is described as follows: growth inhibition relative to DMSO control (SRB); cervical cancer cells: KB-3-1 is the parent and KB-V1 overexpresses MDR1; SRB is the sulforhodamine B stain; higher = more growth inhibition. The following applies: 1 µM; 72 h.
Another assay has as its system KB-V1. The assay is described as above. The following applies: 1 µM; 72 h.

Where a name gives a salt, the structure may show the parent alone. This is one part of the list. Single values are uncertain, as repeats are few or missing. Bounds are passed on as bounds.
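Further: Read-out is SRB optical density at 490 nm, with the control being wells given 0.5% DMSO vehicle, and compound added one day after cells were plated.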

For `Cc1[nH]nc2ccc(-c3cncc(OC[C@@H](N)Cc4ccccc4)c3)cc12`, the growth inhibition in the assay on KB-3-1 was 40.7%; in the assay on KB-V1 it was 82%.

For the compound `Cn1cc(/C=C2\C(=O)Nc3cccnc32)c2ccccc21`, the growth inhibition in the assay with KB-3-1 came to 31%; in the assay on KB-V1, 3.61%.

Consider `CC(C)c1cc(-c2n[nH]c(=O)n2-c2ccc3c(ccn3C)c2)c(O)cc1O` [Ganetespib (STA-9090)], for which the figures for the growth inhibition in the assay with KB-3-1 and in the assay on KB-V1 were 86.2% and 74.5%, respectively.

Take `CN(C)CCC(c1ccc(Br)cc1)c1ccccn1` (centres undefined) [Brompheniramine hydrogen maleate]: the growth inhibition amounted to 28.7% in the assay with KB-3-1 and 10.6% in the assay on KB-V1.

For `CC[C@H](CO)Nc1nc(NCc2ccccc2)c2ncn(C(C)C)c2n1` [Roscovitine (Seliciclib,CYC202)], the growth inhibition in the assay with KB-3-1 is 33.5%; in the assay with KB-V1, 37.5%.

Turning to `CC(C)(C)C#Cc1cc(N(C(=O)[C@H]2CC[C@H](C)CC2)[C@H]2CC[C@H](O)CC2)c(C(=O)O)s1` [VX-222 (VCH-222, Lomibuvir)], the growth inhibition with KB-3-1 worked out at 35%; in the assay on KB-V1, 11%.

In the case of `O=C(Nc1c(Cl)cncc1Cl)c1ccc(OC(F)F)c(OCC2CC2)c1` [Roflumilast], the values for the growth inhibition in the assay on KB-3-1 and in the assay on KB-V1 were under 0% and 17.8%, respectively.

Regarding `CCCS(=O)(=O)Nc1ccc(F)c(C(=O)c2c[nH]c3ncc(Cl)cc23)c1F`, the growth inhibition with KB-3-1 was 31.1%; in the assay with KB-V1, 32.1%.

Turning to `Cn1cnc2c(F)c(Nc3ccc(Br)cc3Cl)c(C(=O)NOCCO)cc21` [Selumetinib (AZD6244)], the figures for the growth inhibition in the assay on KB-3-1 and in the assay with KB-V1 were 38.4% and 45.2%, respectively.

For the compound `O=c1sn(-c2cccc3ccccc23)c(=O)n1Cc1ccccc1` [Tideglusib], the growth inhibition with KB-3-1 was under 0%; in the assay with KB-V1, 12.9%.

Consider `Nc1nc(N)nc(-c2cc(Cl)ccc2Cl)n1` [Irsogladine], for which the growth inhibition with KB-3-1 is 47.8%; in the assay on KB-V1, 23.5%.

Take `Cc1ccc(=O)n(-c2ccccc2)c1` [Pirfenidone]: the growth inhibition was under 0% in the assay on KB-3-1 and 12.4% in the assay with KB-V1.
